Consider ten molecules from patent publication US20240076343A1.

Common to all, as to assay: cell-based or functional assay
The target in test [1] is high-affinity hIL-2 receptor (IL-2Rαβγ) on NK-92 cells (human) (UniProt P01589).
Test [2] concerns the target intermediate affinity hIL-2 receptor complex (IL-2Rβγ) (human) (UniProt P14784).
The target of test [3] is high-affinity hIL-2 receptor (IL-2Rαβγ) (human) (UniProt P01589).
The target of test [4] is intermediate affinity hIL-2 receptor (hIL-2Rβγ) on TF1+IL-2Rβ cells (human) (UniProt P14784).

B1: 1H3-hIgG1-L6-hIL-2 (F42D) (protein)
heavy: EVQLVESGGGLVQPGRSLKLSCAVSGFTFSDYAMAWVRQAPKKGLEWVATISYDGSRTYYRDSVKGRFTISRDNAKITLYLQMDSLRSEDTATYYCARHGSGYFDYWGQGVMVTVSS[not shown - about 450 residues with a human IgG1 Fc and changes]
light: DTVLTQSPALAVSPGERVTISCRASESVRTGVHWYQQKPGQQPKLLIYGASNLESGVPARFSGSGSGTDFTLTIDPVEADDTATYFCQQSWNDPFTFGSGTKLEIKRTVAAPSVFIFPPSDEQLKSGTASVVCLLNNFYPREAKVQWKVDNALQSGNSQESVTEQDSKDSTYSLSSTLTLSKADYEKHKVYACEVTHQGLSSPVTKSFNRGEC
Consider B1, for which the Fold change from rhIL-2 (NK-92) in test [1] turned out to be 10 fold. The Fold change from rhIL-2 (TF1 + IL-2Rβ), pSTAT5 titration in test [2] is 0 fold. This molecule also came in with a Fold change from rhIL-2 (NK-92), pSTAT5 titration in test [3] of 193 fold. Moreover, in test [4], the Fold change from rhIL-2 (TF1 + IL-2Rβ) came out at 2 fold.

B2: 1H3-hIgG1-L6-hIL-2 (E61K) (protein)
heavy: EVQLVESGGGLVQPGRSLKLSCAVSGFTFSDYAMAWVRQAPKKGLEWVATISYDGSRTYYRDSVKGRFTISRDNAKITLYLQMDSLRSEDTATYYCARHGSGYFDYWGQGVMVTVSS[not shown - about 450 residues with a human IgG1 Fc and changes]
light: DTVLTQSPALAVSPGERVTISCRASESVRTGVHWYQQKPGQQPKLLIYGASNLESGVPARFSGSGSGTDFTLTIDPVEADDTATYFCQQSWNDPFTFGSGTKLEIKRTVAAPSVFIFPPSDEQLKSGTASVVCLLNNFYPREAKVQWKVDNALQSGNSQESVTEQDSKDSTYSLSSTLTLSKADYEKHKVYACEVTHQGLSSPVTKSFNRGEC
In test [1], B2 showed a Fold change from rhIL-2 (NK-92) of 1 fold. Besides, the Fold change from rhIL-2 (TF1 + IL-2Rβ), pSTAT5 titration in test [2] stood at 0 fold. The molecule also came in with a Fold change from rhIL-2 (NK-92), pSTAT5 titration in test [3] of 14 fold. For the same molecule, the Fold change from rhIL-2 (TF1 + IL-2Rβ) in test [4] amounted to 1 fold.

B3: 1H3-hIgG1-L6-hIL-2 (E61R) (protein)
heavy: EVQLVESGGGLVQPGRSLKLSCAVSGFTFSDYAMAWVRQAPKKGLEWVATISYDGSRTYYRDSVKGRFTISRDNAKITLYLQMDSLRSEDTATYYCARHGSGYFDYWGQGVMVTVSS[not shown - about 450 residues with a human IgG1 Fc and changes]
light: DTVLTQSPALAVSPGERVTISCRASESVRTGVHWYQQKPGQQPKLLIYGASNLESGVPARFSGSGSGTDFTLTIDPVEADDTATYFCQQSWNDPFTFGSGTKLEIKRTVAAPSVFIFPPSDEQLKSGTASVVCLLNNFYPREAKVQWKVDNALQSGNSQESVTEQDSKDSTYSLSSTLTLSKADYEKHKVYACEVTHQGLSSPVTKSFNRGEC
Take B3: in test [1], the Fold change from rhIL-2 (NK-92) stood at 1 fold. Besides, the Fold change from rhIL-2 (TF1 + IL-2Rβ), pSTAT5 titration in test [2] was found to be 0 fold. Also, the Fold change from rhIL-2 (NK-92), pSTAT5 titration in test [3] was 22 fold. For the same molecule, the Fold change from rhIL-2 (TF1 + IL-2Rβ) in test [4] was 1 fold.

B4: 1H3-hIgG1-L6-hIL-2 (E62Y) (protein)
heavy: EVQLVESGGGLVQPGRSLKLSCAVSGFTFSDYAMAWVRQAPKKGLEWVATISYDGSRTYYRDSVKGRFTISRDNAKITLYLQMDSLRSEDTATYYCARHGSGYFDYWGQGVMVTVSS[not shown - about 450 residues with a human IgG1 Fc and changes]
light: DTVLTQSPALAVSPGERVTISCRASESVRTGVHWYQQKPGQQPKLLIYGASNLESGVPARFSGSGSGTDFTLTIDPVEADDTATYFCQQSWNDPFTFGSGTKLEIKRTVAAPSVFIFPPSDEQLKSGTASVVCLLNNFYPREAKVQWKVDNALQSGNSQESVTEQDSKDSTYSLSSTLTLSKADYEKHKVYACEVTHQGLSSPVTKSFNRGEC
In test [1], B4 came in with a Fold change from rhIL-2 (NK-92) of 1 fold. For the same molecule, the Fold change from rhIL-2 (TF1 + IL-2Rβ), pSTAT5 titration in test [2] amounted to 0 fold. Also, the Fold change from rhIL-2 (NK-92), pSTAT5 titration in test [3] was determined as 18 fold. The Fold change from rhIL-2 (TF1 + IL-2Rβ) in test [4] was 1 fold.

B5: 1H3-hIgG1-L6-hIL-2 (K43A) (protein)
heavy: EVQLVESGGGLVQPGRSLKLSCAVSGFTFSDYAMAWVRQAPKKGLEWVATISYDGSRTYYRDSVKGRFTISRDNAKITLYLQMDSLRSEDTATYYCARHGSGYFDYWGQGVMVTVSS[not shown - about 450 residues with a human IgG1 Fc and changes]
light: DTVLTQSPALAVSPGERVTISCRASESVRTGVHWYQQKPGQQPKLLIYGASNLESGVPARFSGSGSGTDFTLTIDPVEADDTATYFCQQSWNDPFTFGSGTKLEIKRTVAAPSVFIFPPSDEQLKSGTASVVCLLNNFYPREAKVQWKVDNALQSGNSQESVTEQDSKDSTYSLSSTLTLSKADYEKHKVYACEVTHQGLSSPVTKSFNRGEC
As for B5, in test [1], the Fold change from rhIL-2 (NK-92) amounted to 1 fold. Also, the Fold change from rhIL-2 (TF1 + IL-2Rβ), pSTAT5 titration in test [2] was determined as 0 fold. In test [3], the Fold change from rhIL-2 (NK-92), pSTAT5 titration came to 3 fold. Further, the Fold change from rhIL-2 (TF1 + IL-2Rβ) in test [4] was 2 fold.

B6: 1H3-hIgG1-L6-hIL-2 (E62K) (protein)
heavy: EVQLVESGGGLVQPGRSLKLSCAVSGFTFSDYAMAWVRQAPKKGLEWVATISYDGSRTYYRDSVKGRFTISRDNAKITLYLQMDSLRSEDTATYYCARHGSGYFDYWGQGVMVTVSS[not shown - about 450 residues with a human IgG1 Fc and changes]
light: DTVLTQSPALAVSPGERVTISCRASESVRTGVHWYQQKPGQQPKLLIYGASNLESGVPARFSGSGSGTDFTLTIDPVEADDTATYFCQQSWNDPFTFGSGTKLEIKRTVAAPSVFIFPPSDEQLKSGTASVVCLLNNFYPREAKVQWKVDNALQSGNSQESVTEQDSKDSTYSLSSTLTLSKADYEKHKVYACEVTHQGLSSPVTKSFNRGEC
In test [1], B6 yielded an Agonistic Activity (NK-92) of 40 to 70% and a Fold change from rhIL-2 (NK-92) of more than 10000 fold. The Fold change from rhIL-2 (TF1 + IL-2Rβ), pSTAT5 titration in test [2] amounted to 10 fold. Moreover, in test [3], the Fold change from rhIL-2 (NK-92), pSTAT5 titration is 2048 fold. The Agonistic Activity (TF1 + IL-2Rβ) in test [4] amounted to 60%.

B7: 1H3-hIgG1-L6-hIL-2 (E61A) (protein)
heavy: EVQLVESGGGLVQPGRSLKLSCAVSGFTFSDYAMAWVRQAPKKGLEWVATISYDGSRTYYRDSVKGRFTISRDNAKITLYLQMDSLRSEDTATYYCARHGSGYFDYWGQGVMVTVSS[not shown - about 450 residues with a human IgG1 Fc and changes]
light: DTVLTQSPALAVSPGERVTISCRASESVRTGVHWYQQKPGQQPKLLIYGASNLESGVPARFSGSGSGTDFTLTIDPVEADDTATYFCQQSWNDPFTFGSGTKLEIKRTVAAPSVFIFPPSDEQLKSGTASVVCLLNNFYPREAKVQWKVDNALQSGNSQESVTEQDSKDSTYSLSSTLTLSKADYEKHKVYACEVTHQGLSSPVTKSFNRGEC
B7: the Fold change from rhIL-2 (NK-92) in test [1] turned out to be 0 fold. Moreover, in test [2], the Fold change from rhIL-2 (TF1 + IL-2Rβ), pSTAT5 titration is 0 fold. Also, the Fold change from rhIL-2 (NK-92), pSTAT5 titration in test [3] was determined as 3 fold. In test [4], the Fold change from rhIL-2 (TF1 + IL-2Rβ) was 1 fold.

B8: 1H3-hIgG1-L6-hIL-2 (Y45R) (protein)
heavy: EVQLVESGGGLVQPGRSLKLSCAVSGFTFSDYAMAWVRQAPKKGLEWVATISYDGSRTYYRDSVKGRFTISRDNAKITLYLQMDSLRSEDTATYYCARHGSGYFDYWGQGVMVTVSS[not shown - about 450 residues with a human IgG1 Fc and changes]
light: DTVLTQSPALAVSPGERVTISCRASESVRTGVHWYQQKPGQQPKLLIYGASNLESGVPARFSGSGSGTDFTLTIDPVEADDTATYFCQQSWNDPFTFGSGTKLEIKRTVAAPSVFIFPPSDEQLKSGTASVVCLLNNFYPREAKVQWKVDNALQSGNSQESVTEQDSKDSTYSLSSTLTLSKADYEKHKVYACEVTHQGLSSPVTKSFNRGEC
In turn, B8 registered a Fold change from rhIL-2 (NK-92) in test [1] of 4 fold. For the same molecule, the Fold change from rhIL-2 (TF1 + IL-2Rβ), pSTAT5 titration in test [2] came to 0 fold. In addition, the Fold change from rhIL-2 (NK-92), pSTAT5 titration in test [3] is 81 fold. The Fold change from rhIL-2 (TF1 + IL-2Rβ) in test [4] amounted to 0 fold.

B9: 1H3-hIgG1-L6-hIL-2 (E62R) (protein)
heavy: EVQLVESGGGLVQPGRSLKLSCAVSGFTFSDYAMAWVRQAPKKGLEWVATISYDGSRTYYRDSVKGRFTISRDNAKITLYLQMDSLRSEDTATYYCARHGSGYFDYWGQGVMVTVSS[not shown - about 450 residues with a human IgG1 Fc and changes]
light: DTVLTQSPALAVSPGERVTISCRASESVRTGVHWYQQKPGQQPKLLIYGASNLESGVPARFSGSGSGTDFTLTIDPVEADDTATYFCQQSWNDPFTFGSGTKLEIKRTVAAPSVFIFPPSDEQLKSGTASVVCLLNNFYPREAKVQWKVDNALQSGNSQESVTEQDSKDSTYSLSSTLTLSKADYEKHKVYACEVTHQGLSSPVTKSFNRGEC
Take B9: the Fold change from rhIL-2 (NK-92) in test [1] was more than 10000 fold. The Fold change from rhIL-2 (TF1 + IL-2Rβ), pSTAT5 titration in test [2] is 38 fold. In test [3], the Agonistic Activity (NK-92), pSTAT5 titration was 80% and the Fold change from rhIL-2 (NK-92), pSTAT5 titration was more than 10000 fold. In test [4], the Agonistic Activity (TF1 + IL-2Rβ) came to 60% and the Fold change from rhIL-2 (TF1 + IL-2Rβ) was determined as 209 fold.

B10: 1H3-hIgG1-L6-hIL-2 (E62A) (protein)
heavy: EVQLVESGGGLVQPGRSLKLSCAVSGFTFSDYAMAWVRQAPKKGLEWVATISYDGSRTYYRDSVKGRFTISRDNAKITLYLQMDSLRSEDTATYYCARHGSGYFDYWGQGVMVTVSS[not shown - about 450 residues with a human IgG1 Fc and changes]
light: DTVLTQSPALAVSPGERVTISCRASESVRTGVHWYQQKPGQQPKLLIYGASNLESGVPARFSGSGSGTDFTLTIDPVEADDTATYFCQQSWNDPFTFGSGTKLEIKRTVAAPSVFIFPPSDEQLKSGTASVVCLLNNFYPREAKVQWKVDNALQSGNSQESVTEQDSKDSTYSLSSTLTLSKADYEKHKVYACEVTHQGLSSPVTKSFNRGEC
Regarding B10, the Fold change from rhIL-2 (NK-92) in test [1] is 1 fold. Further, in test [2], the Fold change from rhIL-2 (TF1 + IL-2Rβ), pSTAT5 titration worked out at 0 fold. The molecule also displayed a Fold change from rhIL-2 (NK-92), pSTAT5 titration in test [3] of 6 fold. Further, the Fold change from rhIL-2 (TF1 + IL-2Rβ) in test [4] is 1 fold.
